Laboratory results published in the supplement of paper PMC4967469.
IC50 is the fitted dose that halves viability relative to control wells, and lower means more sensitive; a limit (>, <) means that the fit lies beyond the doses tested. AUC, from the same fit, is the share of area under the viability curve across the 256-fold dose range; values near 1 show little effect. For part of these data: The top dose, if marked as inferred, was calculated from the reported fits.

How the values were obtained:
Assay in all cases: Viability of human cancer cell lines after 72 h of drug (GDSC screen)
AV-951 = compound: COc1cc2nccc(Oc3ccc(NC(=O)Nc4cc(C)on4)c(Cl)c3)c2cc1OC [AV-951]; conditions: top dose 0.128 µM; top dose inferred
Description: (§1)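 Human cancer cell lines in 384-well plates, medium with 10% serum, drug for 72 h over a 256-fold dose range (nine 2-fold or five 4-fold steps up to the top dose). Adherent lines were fixed and stained with the nucleic acid dye Syto60, suspension lines read with resazurin; signal relative to control wells, capped at 0 and 100%. One two-parameter sigmoid per drug and line, fitted in a mixed model over all curves with the slope shared within a line.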

I-BET-762 = compound: CCNC(=O)C[C@@H]1N=C(c2ccc(Cl)cc2)c2cc(OC)ccc2-n2c(C)nnc21 [I-BET-762]; conditions: top dose 20 µM; top dose inferred
Description: as §1

Trametinib = compound: CC(=O)Nc1cccc(-n2c(=O)n(C3CC3)c(=O)c3c(Nc4ccc(I)cc4F)n(C)c(=O)c(C)c32)c1 [Trametinib]; conditions: top dose 1 µM
Description: as §1

KIN001-244 = compound: O=C(NC(COc1ccc2[nH]c(=O)[nH]c2c1)c1ccccc1)c1cccn(Cc2ccc(F)c(F)c2)c1=O [KIN001-244]; conditions: top dose 20 µM; top dose inferred
Description: as §1

HG-6-64-1 = compound: CCN1CCN(Cc2ccc(NC(=O)c3ccc(C)c(/C=C/c4cnc5[nH]ccc5c4OC)c3)cc2C(F)(F)F)CC1 [HG-6-64-1]; conditions: top dose 5.12 µM; top dose inferred
Description: as §1

PF-4708671 = compound: CCc1cncnc1N1CCN(Cc2nc3ccc(C(F)(F)F)cc3[nH]2)CC1 [PF-4708671]; conditions: top dose 10 µM; top dose inferred
Description: as §1

Cell Line | AUC (AV-951) | IC50 (AV-951) [µM] | AUC (I-BET-762) | IC50 (I-BET-762) [µM] | AUC (Trametinib) | IC50 (Trametinib) [µM] | AUC (KIN001-244) | IC50 (KIN001-244) [µM] | AUC (HG-6-64-1) | IC50 (HG-6-64-1) [µM] | AUC (PF-4708671) | IC50 (PF-4708671) [µM]
MHH-ES-1 (Ewing sarcoma, adherent) | 0.985 | > 0.128 | 0.82 | 11.3 | 0.968 | > 1 | 0.727 | 5.48 | 0.662 | 0.896 | 0.97 | > 10
MIA-PaCa-2 (pancreas, adherent) | 0.985 | > 0.128 | 0.973 | > 20 | 0.364 | 0.0252 | 0.978 | > 20 | 0.541 | 0.418 | 0.962 | > 10
ML-1 (thyroid, adherent) | 0.983 | > 0.128 | 0.938 | > 20 | 0.631 | 0.153 | 0.913 | > 20 | 0.528 | 0.385 | 0.973 | > 10
MOG-G-CCM (glioma, adherent) | 0.978 | > 0.128 | 0.871 | > 20 | 0.889 | > 1 | 0.746 | 7.25 | 0.595 | 0.61 | 0.983 | > 10
MOG-G-UVW (glioma, adherent) | 0.986 | > 0.128 | 0.712 | 4.86 | 0.45 | 0.0459 | 0.927 | > 20 | 0.829 | 3.07 | 0.986 | > 10
MS751 (cervix, adherent) | 0.989 | > 0.128 | 0.987 | > 20 | 0.92 | > 1 | 0.958 | > 20 | 0.961 | > 5.12 | 0.99 | > 10
Mewo (melanoma, adherent) | 0.98 | > 0.128 | 0.972 | > 20 | 0.362 | 0.024 | 0.966 | > 20 | 0.971 | > 5.12 | 0.973 | > 10
NCI-H28 (mesothelioma, adherent) | 0.975 | > 0.128 | 0.977 | > 20 | 0.866 | > 1 | 0.938 | > 20 | 0.685 | 1.26 | 0.899 | > 10
NCI-H196 (small cell lung carcinoma, adherent) | 0.988 | > 0.128 | 0.878 | > 20 | 0.987 | > 1 | 0.89 | > 20 | 0.816 | 3 | 0.976 | > 10
NCI-H292 (lung adenocarcinoma, adherent) | 0.978 | > 0.128 | 0.826 | 15.7 | 0.166 | 0.00456 | 0.807 | 13 | 0.697 | 1.3 | 0.899 | > 10
NCI-H358 (lung adenocarcinoma, adherent) | 0.983 | > 0.128 | 0.973 | > 20 | 0.473 | 0.0523 | 0.85 | 17.8 | 0.584 | 0.558 | 0.979 | > 10
NCI-H441 (lung adenocarcinoma, adherent) | 0.979 | > 0.128 | 0.97 | > 20 | 0.595 | 0.127 | 0.932 | > 20 | 0.894 | > 5.12 | 0.975 | > 10
NCI-H460 (large cell lung carcinoma, adherent) | 0.99 | > 0.128 | 0.99 | > 20 | 0.833 | 0.559 | 0.928 | > 20 | 0.791 | 2.05 | 0.945 | > 10
NCI-H520 (lung squamous cell carcinoma, adherent) | 0.967 | > 0.128 | 0.9 | > 20 | 0.945 | > 1 | 0.664 | 3.62 | 0.657 | 0.887 | 0.969 | > 10
NCI-H522 (lung adenocarcinoma, adherent) | 0.982 | > 0.128 | 0.984 | > 20 | 0.885 | > 1 | 0.93 | > 20 | 0.492 | 0.302 | 0.934 | > 10
NCI-H596 (lung adenocarcinoma, adherent) | 0.97 | > 0.128 | 0.899 | > 20 | 0.816 | 0.776 | 0.906 | > 20 | 0.83 | 4.61 | 0.937 | > 10
NCI-H630 (large intestine, adherent) | 0.988 | > 0.128 | 0.872 | > 20 | 0.745 | 0.336 | 0.92 | > 20 | 0.892 | > 5.12 | 0.988 | > 10
NCI-H647 (non-small cell lung carcinoma, adherent) | 0.975 | > 0.128 | 0.961 | > 20 | 0.926 | > 1 | 0.864 | 18.9 | 0.825 | 3.27 | 0.955 | > 10
NCI-H650 (lung adenocarcinoma, adherent) | 0.984 | > 0.128 | 0.914 | > 20 | 0.859 | 0.969 | 0.892 | > 20 | 0.876 | > 5.12 | 0.974 | > 10
NCI-H661 (large cell lung carcinoma, adherent) | 0.98 | > 0.128 | 0.873 | > 20 | 0.864 | > 1 | 0.943 | > 20 | 0.751 | 2.01 | 0.827 | 7.87
NCI-H727 (lung carcinoid, adherent) | 0.972 | > 0.128 | 0.875 | > 20 | 0.365 | 0.0207 | 0.933 | > 20 | 0.62 | 0.852 | 0.959 | > 10
